Measured values published in PubChem BioAssay (NCATS).
Where “and” joins values, the source holds several entries; their conditions need not be identical. Identical values can stand only once. The shares of active, inactive and inconclusive entries below differ from those in the screen. Potencies beside an inconclusive call are fits to weak or partial responses and may not hold up. Calls of active or inactive are those of the source. Unless noted, the call rests on the fitted dose curve; in most records, active means well fitted curve in the direction sought with a large enough effect in the repeat runs; inconclusive means weak or mixed curves; inactive means no such curve, though single readings can be large; an effect the other way counts as inactive or inconclusive.

What was measured:
[1] = A High-Content qHTS Against Drug Library for the Identification of Small Molecules that Inhibit DYT1 Early Onset Primary Dystonia-Associated Cell Pathology (AID 1645839; calls by dose curve); settings: HEK293 Flp-In EGFP-delE TorsinA, punctate imaging, 48 h; series mostly up to 46.1 µM
Summary of the method: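 High-content imaging quantified EGFP-TorsinA mislocalization in HEK293-derived cells inducibly expressing DYT1 mutant torsinA, after 48 h exposure to compound given together with tetracycline induction. Cell count served as a toxicity channel alongside %pathology.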

[2] = target: Cytochrome P450 2D6 (Homo sapiens) (UniProt P10635); experiment: Cytochrome P450 family 2 subfamily D member 6 (CYP2D6) small molecule antagonists: luciferase biochemical (cell-free) qHTS assay (AID 1645840); settings: P450-Glo CYP2D6 enzyme, luciferin luminescence, 1 h; series mostly up to 57.4 µM; further: nearly all actives have a fitted effect of over 55% in size; on activity change, negative = inhibition: on the % scale 0 is the no-effect control and ±100 the full control effect
Summary of the method: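 P450-Glo CYP2D6 system: proluciferin substrate converted by enzyme to luciferin, read by luminescence proportional to activity. Enzyme-substrate mix with compound 10 min at room temperature, then NADPH regeneration 1 h before detection reagent.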

[3] = target: Cytochrome P450 2C9 (Homo sapiens) (UniProt P11712); experiment: Cytochrome P450 family 2 subfamily C member 9 (CYP2C9) small molecule antagonists: luciferase biochemical (cell-free) qHTS assay (AID 1645842); settings: P450-Glo CYP2C9 enzyme assay, luciferin luminescence; series mostly up to 57.4 µM; further: nearly all actives have a fitted effect of over 55% in size; on activity change, negative = inhibition: on the % scale 0 is the no-effect control and ±100 the full control effect
Summary of the method: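 P450-Glo CYP2C9 system: proluciferin substrate with enzyme in mix containing 0.4% BSA, 10 min at room temperature, then NADPH regeneration solution added and incubated 1 h at 37C. Detection reagent stopped reaction; luminescence read after 20 min as RLU.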

[4] = target: Cytochrome P450 3A4 (Homo sapiens) (UniProt P08684); experiment: Cytochrome P450 family 3 subfamily A member 4 (CYP3A4) small molecule antagonists: luciferase qHTS assay (AID 1645841); settings: P450-Glo CYP3A4 enzyme assay, luciferin luminescence; series mostly up to 57.4 µM; further: nearly all actives have a fitted effect of over 45% in size
Summary of the method: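 Luminescent CYP3A4 activity readout: compounds plus enzyme-substrate mix 10 min at room temperature, reaction started with NADPH regenerating system for 1 h, stopped with detection reagent, read after 20 min. Ketoconazole served as control.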

[5] = Cytotoxicity counterscreen for inhibitors of SARS-CoV-2 cell entry (AID 1645845; calls by dose curve; further: nearly all actives have a fitted effect of over 50% in size; on activity change, negative = cytotoxicity: on the % scale 0 is the no-effect control and ±100 the full control effect); settings: cell viability (SARS-CoV-2 entry assay cells); activity change, negative = cytotoxicity: at 57.1 µM (top of the series) unless noted; series mostly up to 57.1 µM
Summary of the method: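 ATP-content luminescence (ATPLite 1step, 15 min RT) read after 48 h compound exposure of Expi293F cells stably expressing human ACE2; normalized to cells-only wells and media-only wells.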
Potency means the concentration at half of the fitted maximal effect; tags describe the fitted curve by direction and shape.

Chain of UniProt P08684 (P08684 whole entry, looked up): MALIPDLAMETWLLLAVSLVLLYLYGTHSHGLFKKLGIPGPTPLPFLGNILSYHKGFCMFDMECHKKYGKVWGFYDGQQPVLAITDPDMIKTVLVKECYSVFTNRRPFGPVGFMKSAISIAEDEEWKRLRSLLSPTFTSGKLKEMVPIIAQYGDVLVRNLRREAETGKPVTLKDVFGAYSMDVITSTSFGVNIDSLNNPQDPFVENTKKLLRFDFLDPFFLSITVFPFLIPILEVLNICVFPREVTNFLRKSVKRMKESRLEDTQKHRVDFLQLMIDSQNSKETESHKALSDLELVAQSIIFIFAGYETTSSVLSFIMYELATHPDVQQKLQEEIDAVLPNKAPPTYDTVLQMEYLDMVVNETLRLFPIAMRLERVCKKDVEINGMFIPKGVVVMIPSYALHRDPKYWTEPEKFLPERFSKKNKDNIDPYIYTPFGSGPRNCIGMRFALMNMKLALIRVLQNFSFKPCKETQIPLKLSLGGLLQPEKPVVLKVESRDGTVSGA
Chain of UniProt P10635 (P10635 whole entry, looked up): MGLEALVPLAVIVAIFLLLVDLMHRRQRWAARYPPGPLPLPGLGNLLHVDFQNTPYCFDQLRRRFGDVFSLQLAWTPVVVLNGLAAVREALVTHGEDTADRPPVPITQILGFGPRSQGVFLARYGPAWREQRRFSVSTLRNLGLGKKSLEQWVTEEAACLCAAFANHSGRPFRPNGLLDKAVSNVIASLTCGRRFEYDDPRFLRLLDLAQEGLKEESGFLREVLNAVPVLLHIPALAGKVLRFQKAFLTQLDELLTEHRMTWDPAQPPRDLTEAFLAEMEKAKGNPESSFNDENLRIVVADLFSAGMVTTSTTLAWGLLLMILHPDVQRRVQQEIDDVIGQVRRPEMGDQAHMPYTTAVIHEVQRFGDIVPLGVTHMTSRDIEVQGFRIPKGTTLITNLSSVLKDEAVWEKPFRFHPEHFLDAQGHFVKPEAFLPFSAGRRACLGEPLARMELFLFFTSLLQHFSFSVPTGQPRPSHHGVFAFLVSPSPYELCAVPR
Chain of UniProt P11712 (P11712 whole entry, looked up): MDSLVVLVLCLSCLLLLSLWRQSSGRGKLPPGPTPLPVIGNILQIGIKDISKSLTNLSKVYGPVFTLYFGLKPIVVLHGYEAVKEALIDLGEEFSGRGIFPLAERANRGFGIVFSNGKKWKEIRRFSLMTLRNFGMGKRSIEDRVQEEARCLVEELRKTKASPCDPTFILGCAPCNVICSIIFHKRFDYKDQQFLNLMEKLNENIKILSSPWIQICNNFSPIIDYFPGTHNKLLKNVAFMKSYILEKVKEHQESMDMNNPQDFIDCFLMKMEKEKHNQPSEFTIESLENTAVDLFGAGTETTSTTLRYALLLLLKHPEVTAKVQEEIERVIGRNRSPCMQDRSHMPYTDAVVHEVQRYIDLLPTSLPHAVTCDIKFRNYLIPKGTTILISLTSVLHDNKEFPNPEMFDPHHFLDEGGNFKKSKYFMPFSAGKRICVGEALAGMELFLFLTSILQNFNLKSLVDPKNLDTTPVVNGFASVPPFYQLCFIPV

O=C(CCl)c1ccc(Cl)cc1Cl
Potency [1]: inconclusive: 7.08 µM [inhibitor, full curve, poor fit] | Potency [2]: inconclusive: 23.9 µM [inhibitor, single point] | Potency [3]: inconclusive: 33.8 µM [inhibitor, partial curve, poor fit] and inconclusive: 38.9 µM [inhibitor, partial curve, poor fit]

CCN(CC)CCc1c[nH]c2ccccc12
Potency [1]: inconclusive: 100 µM [inhibitor, single point] | Potency [4]: inactive | Potency [3]: inactive

O=C1CN2CCOC2(c2ccccc2Cl)c2cc(Cl)ccc2N1 (stereo unspecified)
Potency [1]: inconclusive: 25.1 µM [inhibitor, single point] | Potency [2]: inconclusive: 12.3 µM [inhibitor, partial curve] | Potency [5]: inactive

CCC1(c2ccccc2)CCC(=O)NC1=O (stereo unspecified)
Potency [1]: inconclusive: 35.5 µM [inhibitor, single point] | Potency [2]: inactive | Potency [3]: inconclusive: 27.5 µM [inhibitor, partial curve, poor fit]

CC(C(=O)c1ccccc1)N(C)C (stereo unspecified)
Potency [1]: inactive | Potency [2]: inconclusive: 30.9 µM [inhibitor, single point]

CCC1(CC)C(=O)NC(=O)NC1=O
Potency [1]: inactive | Potency [2]: inactive | Potency [4]: inactive

CC(=O)[O][Hg][c]1ccccc1
Potency [1]: active: 2.82 µM | Potency [4]: active: 7.76 µM | Potency [5]: inconclusive: 14.1 µM [cytotoxic, partial curve, poor fit]

C=CCOC(Cn1ccnc1)c1ccc(Cl)cc1Cl (stereo unspecified)
Potency [1]: inconclusive: 25.1 µM [inhibitor, single point] | Potency [2]: active: 2.88 µM

O=C(O)c1cc(Oc2ccc(C(F)(F)F)cc2Cl)ccc1[N+](=O)[O-]
Potency [1]: inactive | Potency [2]: inconclusive: 4.9 µM [inhibitor, partial curve, poor fit] | Potency [3]: inconclusive: 38.9 µM [inhibitor, single point]

O=[N+]([O-])c1ccc([As](=O)(O)O)cc1
Potency [1]: inconclusive: 35.5 µM [inhibitor, single point] | Potency [4]: inactive

O=S(=O)(O)C(F)(F)C(F)(F)C(F)(F)C(F)(F)C(F)(F)C(F)(F)C(F)(F)C(F)(F)F
Potency [1]: inconclusive: 35.5 µM [inhibitor, single point] | Potency [2]: inactive | Potency [3]: active: 0.564 µM

Cc1nnc2n1-c1sc(CCc3ccc(CC(C)C)cc3)cc1C(c1ccccc1Cl)=NC2C (stereo unspecified)
Potency [1]: inconclusive: 11.2 µM [inhibitor, partial curve, poor fit] | Potency [2]: active: 27.5 µM | Potency [3]: active: 15.5 µM | Potency [5]: inconclusive: 39.8 µM [cytotoxic, single point]

C[CH2][Hg][S]c1ccccc1C(=O)O
Potency [1]: active: 5.01 µM | Potency [2]: inconclusive: 15.5 µM [inhibitor, partial curve, poor fit]

C[C@]12C/C(=C/O)C(=O)C[C@@H]1CC[C@@H]1[C@@H]2CC[C@@]2(C)[C@H]1CC[C@]2(C)O
Potency [1]: inconclusive: 35.5 µM [inhibitor, single point] | Potency [2]: inconclusive: 27.5 µM [inhibitor, single point] | Potency [3]: inconclusive: 13.8 µM [inhibitor, partial curve]

c1ccc2c(c1)OCC(C1=NCCN1)O2 (stereo unspecified)
Potency [1]: inconclusive: 35.5 µM [inhibitor, single point] | Potency [3]: inactive

Oc1ccc(Cl)cc1Cc1ccccc1
Potency [1]: inconclusive: 39.8 µM [inhibitor, partial curve, poor fit] and inconclusive: 10 µM [inhibitor, partial curve, poor fit] | Potency [2]: inconclusive: 34.7 µM [inhibitor, single point]

CCC(=O)O[C@H]1CC[C@H]2[C@@H]3CCC4=CC(=O)CC[C@]4(C)[C@H]3CC[C@]12C
Potency [1]: inconclusive: 15.8 µM [inhibitor, partial curve, poor fit] | Potency [2]: inconclusive: 38.9 µM [inhibitor, single point] | Potency [5]: inactive

CCCCCCCCCCCCCCCC[N+](C)(C)C
Potency [1]: active: 12.6 µM | Potency [3]: inconclusive: 26.8 µM [inhibitor, single point] | Potency [5]: inconclusive: 20 µM [cytotoxic, partial curve]

CC(C)N(CCC(C(N)=O)(c1ccccc1)c1ccccn1)C(C)C (stereo unspecified)
Potency [1]: inactive | Potency [2]: inactive

CC(=O)OC1(c2ccccc2)CCN(CCc2ccccc2)CC1
Potency [1]: inconclusive: 63.1 µM [inhibitor, single point] | Potency [2]: inconclusive: 0.578 µM [inhibitor, full curve, poor fit] | Potency [4]: inactive | Potency [3]: inconclusive: 32.5 µM [inhibitor, single point]

CCCCCCCCCCCC[N+](C)(C)CCOc1ccccc1
Potency [3]: inconclusive: 30.9 µM [inhibitor, single point]

COP(=S)(OC)Oc1ccc(S(=O)(=O)N(C)C)cc1
Potency [2]: inactive | Potency [4]: inconclusive: 11 µM [falling, partial curve, poor fit]

CN(Cc1cccc(-c2ccncc2)c1)C(=O)Oc1ccc(-c2ccc(C(N)=O)cc2)cc1
Potency [2]: inconclusive: 0.952 µM [inhibitor, full curve, poor fit]

NCC(CC(=O)O)c1ccc(Cl)cc1 (stereo unspecified)
activity change, negative = inhibition [2]: inactive: 14.3% [at 0.91 µM]

COc1cc(CCN)cc(OC)c1OC
Potency [2]: inconclusive: 4.35 µM [inhibitor, full curve, poor fit]

CNC(C)Cc1ccccc1OC (stereo unspecified)
Potency [2]: inconclusive: 15.5 µM [inhibitor, partial curve] | Potency [3]: inactive

O=C(N[C@@H](COc1ccc2[nH]c(=O)[nH]c2c1)c1ccccc1)c1cccn(Cc2ccc(F)c(F)c2)c1=O
Potency [2]: active: 4.25 µM

CN(C)CCc1c[nH]c2ccc(CN3CCN(C)S3(=O)=O)cc12
Potency [2]: inconclusive: 26.8 µM [inhibitor, partial curve, poor fit]

c1ccc([C@@H]2C[C@H]2NC2CCNCC2)cc1
Potency [2]: active: 10.7 µM | Potency [3]: inconclusive: 16.9 µM [inhibitor, single point]

CC(=O)C1CCOC1=O (stereo unspecified)
Potency [2]: inactive

CN(C)[C@@H]1C(=O)C(C(N)=O)=C(O)[C@@]2(O)C(=O)C3=C(O)c4c(O)cccc4[C@@](C)(O)[C@H]3[C@H](O)[C@@H]12
Potency [2]: inconclusive: 37.9 µM [inhibitor, single point] | Potency [4]: inconclusive: 12 µM [falling, partial curve]

O=C(N1CCCCC1Cc1ccccc1)n1cc(-c2ccc(-c3ccccc3)cc2)nn1 (stereo unspecified)
Potency [2]: inactive

c1ccc(C2(c3ccccc3)OC[C@@H]([C@H]3CCCCN3)O2)cc1
Potency [2]: active: 0.849 µM | Potency [3]: inconclusive: 15.1 µM [inhibitor, partial curve]

COc1cccc(NCC(F)Cn2c3ccc(Br)cc3c3cc(Br)ccc32)c1 (stereo unspecified)
Potency [2]: inactive | Potency [4]: inconclusive: 7.56 µM [falling, full curve] | Potency [3]: active: 7.56 µM
